Phenotypic hit data for 21 compounds are collected here from the supplement of paper PMC2702839.

Structures can show the parent of a compound that is named as a salt. Some of the results follow.

This experiment concerns Schistosoma mansoni schistosomula. The experiment can be described thus: phenotypic hit in primary schistosomula screen (any phenotype vs DMSO control) (binary (1 = hit, 0 = no phenotype)); higher = active (phenotype induced). Particulars: 1 µM; time (d): 7.
With `C=CCc1ccc(OC(=O)c2ccccc2)c(OC)c1` [eugenyl benzoate], the phenotypic hit is inactive: 0.
With `CCN(CC)CCOC(=O)C(c1ccccc1)C1CCCCC1` (stereo unspecified) [drofenine hydrochloride] the figure was inactive: 0; with `COc1cc(Cc2cnc(N)nc2N)cc(OC)c1OC` [Trimethoprim], inactive: 0.
The value for `CO[C@@]1(NC(=O)Cc2cccs2)C(=O)N2C(C(=O)O)=C(COC(N)=O)CS[C@@H]21` [cefoxitin sodium] was inactive: 0; that for `CC(=O)O[C@H]1CC[C@]2(C)C3C(=O)[C@@H](OC(C)=O)[C@@]4(C)C(C[C@@H]5O[C@]6(CCC(C)CO6)[C@@H](C)[C@@H]54)C3CC[C@H]2C1` (stereo partly specified) [11-ketorockogenin acetate] was inactive: 0.
Take `COc1cccc2c1CCC1=CC(=O)CC[C@@]12C` [14-methoxy-4,4-bisnor-4,8,11,13-podocarpatetraen-3-one]: the phenotypic hit was inactive: 0.
`CCCCC(CC)CN1CN(CC(CC)CCCC)CC(C)(N)C1` (stereo unspecified) [hexetidine]: the phenotypic hit is active: 1.
The value for `Cc1cccc(C)c1NC(=O)C1CCCCN1C` (stereo unspecified) [mepivacaine hydrochloride] was inactive: 0; that for `COc1ccc(C2C(=O)c3ccccc3C2=O)cc1` [anisindione] was inactive: 0.
As to `CC(=O)Oc1ccc2c(c1)CC[C@@H]1[C@@H]2CC[C@]2(C)[C@@H](OC(C)=O)CC[C@@H]12` [estradiol diacetate], the phenotypic hit was active: 1.
With `CN1C(C(=O)Nc2ccccn2)=C(O)c2sccc2S1(=O)=O` [tenoxicam] the figure was inactive: 0; with `N=C(N)N` [guanidine carbonate], inactive: 0; with `C[C@]12CC[C@H]3C(=CCc4cc(O)ccc43)[C@@H]1CCC2=O` [equilin], inactive: 0.
With `C=C[C@H]1CN2CC[C@H]1C[C@@H]2[C@@H](O)c1ccnc2ccc(OC)cc12` [quinidine gluconate] the figure was inactive: 0.
The value for `Cc1c(C(N)=O)cc([N+](=O)[O-])cc1[N+](=O)[O-]` [dinitolmide] was inactive: 0; that for `COc1ccc2c(c1OC)OC[C@@H](c1ccc(OC)c(OC)c1OC)C2` [duartin, dimethyl ether] was inactive: 0; that for `CS(=O)(=O)c1ccc(C2=C(c3ccccc3)C(=O)OC2)cc1` [rofecoxib] was inactive: 0.
As to `CCC/C=C1\OC(=O)C2=C1CCC=C2` [ligustilide], the phenotypic hit is inactive: 0.
With `Cn1c(=O)c2[nH]cnc2n(C)c1=O` [Aminophylline] the figure was inactive: 0.
With `NC(N)=NCCC[C@H](N[C@H](CCC(=O)O)C(=O)O)C(=O)O` [nopaline] the figure was inactive: 0.
The value for `CN(C)CCC=C1c2ccccc2CCc2ccccc21` [Amitriptyline hydrochloride] was active: 1.
